# This is one part of the list. At the low end of the ranking, values are background and their order means little. The protein was read in a cell extract, so binding may be indirect.
# Biological target: T1, HNF4alpha8 (COS-7 nuclear extract) (UniProt P41235-5)
# T1 sequence: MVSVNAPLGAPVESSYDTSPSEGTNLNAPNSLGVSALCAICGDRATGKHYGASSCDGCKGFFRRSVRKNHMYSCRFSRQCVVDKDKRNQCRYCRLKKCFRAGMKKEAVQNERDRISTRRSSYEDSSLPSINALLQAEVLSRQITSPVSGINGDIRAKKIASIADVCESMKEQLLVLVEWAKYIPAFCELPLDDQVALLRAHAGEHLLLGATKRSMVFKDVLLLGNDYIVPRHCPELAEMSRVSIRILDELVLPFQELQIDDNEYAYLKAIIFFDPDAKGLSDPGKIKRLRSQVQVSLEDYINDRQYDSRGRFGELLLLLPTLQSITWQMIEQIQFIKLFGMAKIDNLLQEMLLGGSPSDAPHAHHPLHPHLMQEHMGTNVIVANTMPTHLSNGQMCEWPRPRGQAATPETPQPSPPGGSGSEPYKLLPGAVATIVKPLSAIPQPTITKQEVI
# Assay: protein-binding microarray
# Settings: COS-7 nuclear extract on double-stranded Agilent 4x180k PBM; binding buffer, salt, pH and temperature not given; high values mean tight binding; double strand, one strand shown; sequences stand for … in …GCCTAGGGAGATTAGAGTATCGGTCGA
row,Sequence,binding signal (log2 normalized intensity)
1,CGACTCAGTGGGGGGGGGGGGGGGGGTGTG,-1.33
2,GCATTTGCTCCCTGACTTGGTTTACAAGGT,0.867
3,CAGTCATTGCCATCTGCAAGAGAGAATAGA,-1.32
4,ACCCTCTGGGGCCGGGAGCAGGGAGCGAGA,-1.22
5,TGCAGGTTCATGGGAGAGCACTTGGTGCCT,-0.358
6,CCTGACCTGAAAGGTAGGCAGAGAGGCTGC,-1.23
7,CCCAGCGGATTAATATCCAGAGGCTGAGCA,-1.4
8,TTATCTCACAAGCATGGGCCTCCTCTTCTT,-1.36
9,GCTCTCCCACTCCCCCTGCTGGACACCGAG,3.59
10,CAGGGTAGAAAAGAGTTAAAAAAAAAAAAA,-1.4
11,TGATAGCTAGAGAGTTCAAGAAGGGCAGTT,1.28
12,TACTGAAATGCCAAAAAAGAAGAAGTGAAA,-1.21
13,CCTTTTTTTTGTGTGTGTGTCAGAGACCCA,2.33
14,GGACTGTGACCCCACCTCTCAGACAGAGCT,3.8
15,TTTGCTCTGTTGTGTCAAAGGTCACTTAGT,6.22
16,AGTCCACCAACTCTGTGAATTCATTTTTTT,0.232
17,CATTTCAGTGAACTTTTCAATGCTCCAGTA,0.815
18,ACTTAACAAGTGAAAGTCTAAAGTTCAGTG,5.16
19,ACTGGGAGATAATGCACTGGTGACTTTAAG,-0.117
20,CAACTAAAGGAATGCGCCTGAACTGACTGC,-1.26
21,CCTTTTCACGCTAAGAAGGAATCTGTTCAC,0.737
22,GGAATGAAACCAGTTTCAAAACCTGATTCT,-1.25
23,CCAGTCGCTTAACCTCTTGATCCTGAGTTT,1.76
24,TTGAACTGAAGGATATTGGCAACGCCTCAG,-1.25
25,CAAAGGAGCTTTATTGGTTCCATAAGTCAA,0.795

row,Sequence,binding signal (log2 normalized intensity)
1,ACATTTAACTTAACCACTCAATCAGTACTG,-0.448
2,AGGAATTCTGATCTTTGACCTCTCCAGGGT,7.01
3,CAAAGGACAGGCTGACTATCACTGGGAGAT,-1.28
4,CAGGGCACATGTACACAGGAATATCAACAG,-1.25
5,ACAGCATTAGAGCAACCAGAATGTTCAAAA,-1.14
6,CCAAACCAGTTCAACAAGAATTCCCCACTC,-0.505
7,ATCAGCAATGAACAAAGGTCGGTGGTATGT,3.25
8,TCCCAGAGCATACATGCAGCTGAGAAAGAG,-1.42
9,GAGCAAGAAACAGCAAATGCTTTTATTACC,-1.37
10,AAACTCAGAGTCAAATCCCCTAGGTGATTA,-0.758
11,TAAAACAAACTCATTTTGATCTTTGTGTAC,3.19
12,TAACCATTCTTTCTGAGAAAAGCTGATGAC,-1.07
13,AGGGGTGGGGACCTTTGGGCTCTGACCCGA,3.4
14,AGTATCTATAGTTATTGCATGCAAGAGTTC,1.83
15,GGGCCGGCTCAGGAGAAGGGCCCATGGGCT,-1.38
16,CCTGAAGGCTGAGCCTAGGAGTTCAATGCT,-1.21
17,TCTGCTTAAAGGCAAAGTCCAGAACCTGGA,3.78
18,CAGACTAAACTCACAATGGGGCATGACTTG,-0.674
19,TAAGAAAGGCTACAAAGGTGACTTGCCCAG,-0.214
20,CTGACAGACTGCCATTCCAGAAGTAGGATG,-1.42
21,TTGCACAGTATTTGGTGAGGCCCCAGTGTC,1.76
22,CATTCTTATCACAGAGCATCTGGTGGAACT,1.04
23,CCAGGGGAAACTCCATTTCCTTCTAGCTCC,-1.31
24,ATAACACACAGGCTCAACGGGTTAGACGCA,-1.47
25,GACAGGCTAATGAGATAATGCTGGTAAAGC,-1.33

row,Sequence,binding signal (log2 normalized intensity)
1,GGGAAAGGGATAAGATTAGGTGCTGAGCAA,-1.27
2,CAAACAGGTCAAGCAATGCTGGGGACCTTT,3.76
3,AGCAGCTGTTTGACCAAAGCTACTCATCAT,-1.3
4,GTATAACCTGGAACTGAAAGAGACCTTTGA,6.06
5,CACCTACATTCAGGACACTTCTGAAAAAAA,-1.35
6,TAGGCATTGAGGCAGCCAGCGCAGGGGCTT,-1.38
7,CAACCAGAGGTCACTTTTATCACCATCTTG,1.16
8,GGAGTTGCTTGTGTTGGAGCATTAGTTGAC,1.1
9,CTGGGGGCTGGGCGCGGGATCCTCTTTCCT,-1.13
10,GGAAGACAGTCTTGGGCACAAAGTACAAAA,3.14
11,CCCAAGGGATAGGCAGGAGTTAACTAACAA,-1.43
12,AGAGCATCTTGGACTTGGGACTCTGCAGAC,5.66
13,TAACTTAACCACTCAATCAGTACTGAAACA,-1.27
14,GCCCCAGCTCGCTCAGCTGGTTGCCCCTTT,4.47
15,CTGACATGCTGTCACTTCTGCTGCATTCTA,-1.22
16,TAAATCATGGGGAGCATCTATTTTCTATTT,-0.474
17,GGCAGGGTTGGCTGTGGCAATTCCTTAAAA,-1.24
18,AGGCAGAGACTGCCCTGAGCCGCCAGGCGG,-1.33
19,TAATAGCCAGAACTCAGGGTCTGGTTCCAA,-0.604
20,CTGATAAAGGAAGGAATTTACTGCAGTCAG,-1.42
21,GGCAGGTTGCCCTTTCGGTGGGACTAAATT,1.87
22,GTCACGTTCCAGCTGCTTCAGGAGCCCCCT,3.98
23,GTAAGTTAAGTAACTCTCCAAATTCCAGGA,-1.28
24,CCACTGGTGTAAGCTCTGGAGTCCAAAGGT,4.54
25,AGGAGGATCAGGTTTCACTGTTTTGGACAT,1.72

row,Sequence,binding signal (log2 normalized intensity)
1,TGGATTAGTCCCTTTTCACGCTAAGAAGGA,-0.973
2,CCAGATAAACAGAAGAAAGGGGCTAGGGCA,-1.24
3,GAGCTGAGGAATTTCACCCAGGTATGACAA,-1.34
4,GGCTTGTGTTTAACCTTTGGGTGTGTTCAG,2.96
5,GGCCCTGCAGGGCCCCACATTTCAGGAATG,0.309
6,CCTAACTATGGTTGATAAGGAAGTCCATGA,1.58
7,TATGCATTTGTCTCAGGTGGGCAGAGGCCT,-0.0778
8,CCTTAGCTCTAGACATCGACCTTTGTGGGC,4.67
9,AAAGGTCAGGGATAGAACTGGTCCTGTGGG,1
10,CTAGCTGAGTGAGTAGGTTCTCAGCTGACA,-1.26
11,CAGTTTGAAAAACACTGGATAAAGTCCATA,2.95
12,AGCTAGTGCTAAAGGTCATATCCAAAATAT,4.83
13,GGAGACTTCAAACGGGAAGCGAGGCCTCAT,-1.35
14,TAGGCTATCAGACAGCCACACTTTAATGTG,-1.38
15,GATCTTTGTTAGACCCTTATCAGTAGTTCT,1.75
16,TGTAACTAACAACTGACCTTGCAGGCCAGG,1.03
17,GATCCTTATCAGTGTGAGCTACAAGTGAAT,0.424
18,CTGAGAGATTTTTTCTTCCACCTCCCTCCA,1.64
19,TATGTCATAATGTACTCCACTGTGCAGTGG,0.944
20,TTTAAGATTCCAGCTCTCGGATCCTCTGGG,-1.24
21,GCAAGTAATTAAACATTTATTGAGCAGGTT,-0.299
22,ATCTTGGAACAGGTCTCAGGAGTCCAGGGG,1.25
23,ATCATAGTGTTTCTTCTGGTTCTGCAAGGC,0.439
24,GCCAAAAGTCTCAGAAGCTGGGAGACCACT,-1.39
25,TCAGGCAAACAACAGGCATCAACTCTATCA,-1.44

row,Sequence,binding signal (log2 normalized intensity)
1,CTGCTTAAACCTTTCAAGGGATTCCTATCG,-0.791
2,ATAAGGTGAACATACGTGGCTACCTGTGCA,-0.00248
3,TGAGCTCTGGGGTCCTCTGCTGCCCTCTAG,2.74
4,ACTTCAGGATTCTTTATCTTAGCTTCAGCT,-1.44
5,TTTTATCACCACATCTCCCACTGTGGACTC,4.15
6,CCTTTGACCTTCGGCTTCCCCAGAGAAAGA,3.38
7,AAAGCAAAGTCCAACACAGAAGCCTTTTGT,2
8,CCACAAAAGCCAACAGTACAGCCTTTGATC,2.65
9,GGGAGACCAGGAAAGTGAATATCTGGCAAA,-1.36
10,AGGGAAAGTGGGGGGAAAGAATAACGTTAC,-1.46
11,AAAAGGCTAGAGCGCGCTGGAATCTTGATA,-1.41
12,AGATTCTTTCTTCCTTTTGAAAAAGTGAGT,0.567
13,ACTTCTGAGTTTTATCAGCTTCCCTGAGAT,-0.495
14,TGTTCTTGGGGCCCACAGAGTCCAGAGGTC,6.35
15,AAAGGTTAGCTTGGACAGAGTTTGTGGTGT,1.97
16,GGCTGTAGCAACCAAGTACCGCAAACAAGG,-1.3
17,GTCATGTCTCATTGCCCCTTGAGCTAAATA,3.32
18,TGGACAGTGTAAGATAAAAATCAGAGATCA,-1.43
19,ACTTCTTTGTGATGTGTGGATTCAGCTCAC,1.28
20,TTGTTTCCTCAGGGAGGAAGGCAACCACAG,-1.12
21,CCCCAGCATTTTGCAGACCTTGGTCAAAGT,2.99
22,GTTCAGGAGTTGTCTGTCCAGTTCAGGAGT,1.38
23,AAGATGGCTCTCCCGGGGCGGGGGTGACCA,1.04
24,CCTTCAGGGGCATTTGAGTACATGCCTCTC,0.509
25,GTTCCTGAGATAAAAAGAAGCTTGGTATGT,1.15

row,Sequence,binding signal (log2 normalized intensity)
1,ATGTGGGGCGTGTGTTAGACTTTGGACCTG,9.77
2,ACCTACCCTTTGCCCTGGACATATTTGTCT,2.49
3,CCCTTATCTTTTTAGCAACTGGTATGTTAG,2.06
4,TGGACTAAGAGTAGCGGTTTCTGCTTGGTT,0.164
5,TGAGATAGGTACTATTATTAGAGTCCCTTT,1.22
6,GACCTGCGTAGCCCAAAGGTCAGTCTGCAG,4.15
7,AACATGAAACAGTCACAGTTATCAGACAGA,-1.26
8,TGCTCATAGCTACGGGTGACCTTGAGCACT,3.93
9,CTCAGCAAAGTCAGGTCAGTAGCCCAGGGT,-1.1
10,CAGAGTGATCTTTGAAACATAACAGCAACA,1.2
11,TTACCTTGGCAGCCACTGAGGCTCTGTGCC,-1.35
12,GTGGTGCTGTCCAAGGTGCTAGCTCCGACT,-1.35
13,TGATTAGAAGAAAAGAGTTGCTCAAACCAA,-1.05
14,ATTCCAAGGACTGAGATAAGAGAAGGGGTC,1.4
15,CTACAGGTATGCCTTTGAAGAGTACAGCCT,-0.0565
16,AGTGCAGTATGCGCTCTGGGAAACAGCACT,-1.24
17,TGTCGTTTGCTTAGTCTTATCTGAGGTGCC,1.73
18,AGGGGACTTCGCTGGAGGTGTTAAAGTGCC,0.389
19,GAGGTATGCCAGGAATGCTGAGGAGGGCCT,-1.29
20,AGCCACCTGTCACTCAATGCAGCAGCATTG,-1.47
